# Measurements: the supplement of paper PMC9446081
# Out of some 39,000 compounds screened, about 220 (0.56%) showed activity. The list shows a part of the results.
# System: Escherichia coli K-12 BW25113
# Test: relative growth (OD600 normalised to plate interquartile mean) (fraction); higher = less growth inhibition, active = 0.2 or less
# Details: 50 µM; LB; incubation time: overnight (16-24 h)
# 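Note: static incubation at 37 °C against the wild-type strain, values averaged over two biological replicates.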
row,SMILES,relative growth
1,Cn1cnc(=O)c2ccccc21,inactive: 1.01
2,Cc1ccc(-c2cnc3c(c2)C(=O)N([C@@H](C)CO)C[C@H](C)[C@H](CN(C)C(=O)Cc2ccncc2)O3)cc1,inactive: 1.01
3,CCCNC(=O)C[C@H]1CC[C@H]2[C@@H](COc3ccc(NC(=O)c4ccc5c(c4)OCO5)cc3C(=O)N2C)O1,inactive: 1.01
4,CN(C)CCOc1ccc(CN)cc1,inactive: 0.969
5,COCC#Cc1ccc2c(c1)O[C@@H](CN(C)S(=O)(=O)c1ccc(OC)cc1)[C@H](C)CN([C@@H](C)CO)S2(=O)=O,inactive: 1.03
6,C[C@H]1CN([C@@H](C)CO)C(=O)c2cc(NC(=O)CCCN(C)C)ccc2O[C@H]1CN(C)Cc1ccc2c(c1)OCO2,inactive: 0.985
7,Cc1noc(C)c1S(=O)(=O)Nc1ccc2c(c1)C(=O)N([C@H](C)CO)C[C@@H](C)[C@H](CN(C)C(=O)Nc1ccc(F)cc1)OCCCC[C@H](C)O2,inactive: 0.991
8,C[C@@H]1CN([C@H](C)CO)C(=O)c2cccc(NC(=O)C3CC3)c2O[C@@H]1CN(C)C(=O)NC1CCCCC1,inactive: 1
9,COc1ccc(S(=O)(=O)N(C)C[C@@H]2OCCCC[C@H](C)Oc3ccc(NC(=O)C4CCCCC4)cc3C(=O)N([C@@H](C)CO)C[C@H]2C)cc1,inactive: 1.04
10,C[C@@H]1CCCCO[C@@H](CN(C)Cc2ccc(Cl)c(Cl)c2)[C@@H](C)CN([C@@H](C)CO)C(=O)c2cc(NC(=O)Nc3ccc(C(F)(F)F)cc3)ccc2O1,inactive: 1.03
11,C[C@H](CO)N1C[C@H](C)[C@H](CN(C)C(=O)Nc2cccc3ccccc23)OCCCC[C@H](C)Oc2ccc(NC(=O)c3ccccc3)cc2C1=O,inactive: 1
12,C[C@@H]1CN([C@H](C)CO)S(=O)(=O)c2ccc(C#Cc3cccc(F)c3)cc2O[C@H]1CN(C)S(=O)(=O)c1cn(C)cn1,inactive: 1.01
13,C[C@H]1CN([C@@H](C)CO)C(=O)c2cc(C3=CCCCC3)cnc2O[C@H]1CN(C)S(=O)(=O)c1cn(C)cn1,inactive: 1.01
14,CCS(=O)(=O)N1C[C@]2(CN(C2)S(=O)(=O)c2cn(cn2)C)c2c([nH]c3cc(ccc23)OC)[C@H]1CO,inactive: 1.01
15,CC1=C(/C=C/C(C)=C/C=C/C(C)=C/CO)C(C)(C)CCC1,inactive: 0.992
16,C[C@H](CO)N1C[C@H](C)[C@H](CN(C)S(=O)(=O)c2cccs2)Oc2ccc(NC(=O)Cc3ccccc3)cc2CC1=O,inactive: 1.01
17,COc1cccc(S(=O)(=O)N(C)C[C@@H]2Oc3ncc(C#CCN(C)C)cc3C(=O)N([C@H](C)CO)C[C@H]2C)c1,inactive: 0.971
18,CC(C)NC(=O)N(C)C[C@@H]1Oc2ccc(NS(=O)(=O)c3ccccc3)cc2C(=O)N([C@H](C)CO)C[C@@H]1C,inactive: 0.873
19,C[C@@H]1CN([C@H](C)CO)C(=O)Cc2cc(NS(=O)(=O)c3cn(C)cn3)ccc2O[C@H]1CN(C)C(=O)Nc1ccccc1,inactive: 1.01
20,C[C@@H]1CCCCO[C@H](CN(C)Cc2ccc3c(c2)OCO3)[C@@H](C)CN([C@H](C)CO)C(=O)c2cc(NC(=O)CCC(F)(F)F)ccc2O1,inactive: 1
21,CN1CCN(C(=O)C[C@@H]2CC[C@@H](NC(=O)c3ccc4c(c3)OCO4)[C@@H](CO)O2)CC1,inactive: 0.966

row,SMILES,relative growth
1,COc1ccc(S(=O)(=O)N(C)C[C@@H]2Oc3c(NS(=O)(=O)c4cccs4)cccc3C(=O)N([C@@H](C)CO)C[C@@H]2C)cc1,inactive: 1.04
2,CN(C)c1ccc(C(=C2C=CC(=[N+](C)C)C=C2)c2ccc(N(C)C)cc2)cc1.[Cl-],inactive: 1.03
3,CC(C)NC(=O)N(C)C[C@H]1Oc2ccc(NS(=O)(=O)c3cn(C)cn3)cc2CC(=O)N([C@@H](C)CO)C[C@H]1C,inactive: 0.983
4,C[C@H]1CN([C@@H](C)CO)S(=O)(=O)c2ccc(-c3ccccc3F)cc2O[C@H]1CN(C)S(C)(=O)=O,inactive: 0.999
5,C[C@H](C[C@H](N)C(=O)O)C(=O)O,inactive: 0.987
6,Cc1noc(C)c1NC(=O)N(C)C[C@@H]1OCCCC[C@H](C)Oc2ccc(NC(=O)Nc3ccccc3)cc2C(=O)N([C@H](C)CO)C[C@@H]1C,inactive: 0.988
7,CN(C)c1ccc(O)c2c1C[C@@H]1C[C@@H]3[C@@H](N(C)C)C(=O)C(C(N)=O)=C(O)[C@]3(O)C(=O)[C@H]1C2=O,active: 0.0589
8,C[C@@H]1CN([C@@H](C)CO)C(=O)c2cc(NC(=O)Nc3cccc4ccccc34)ccc2O[C@@H]1CN(C)Cc1ccc2c(c1)OCO2,inactive: 1.01
9,C[C@H]1CN([C@@H](C)CO)C(=O)c2cc(NC(=O)Nc3cccc4ccccc34)ccc2O[C@H]1CN(C)C(=O)Nc1ccc2c(c1)OCO2,inactive: 1.02
10,C[C@H](CO)N1C[C@H](C)[C@H](CN(C)C(=O)c2cnccn2)Oc2ncc(C#CCC3CCCC3)cc2C1=O,inactive: 1.03
11,O=C(O)CCN1C(=O)c2ccncc2C1=O,inactive: 0.998
12,O=C(C[C@@H]1CC[C@H]2[C@@H](COC[C@H](O)CN2S(=O)(=O)c2ccccc2F)O1)NCc1ccccc1Cl,inactive: 0.991
13,CN1C(=O)c2cc(NC(=O)Cc3cccs3)ccc2OC[C@@H]2O[C@@H](CC(=O)NCCCN3CCOCC3)CC[C@H]21,inactive: 0.981
14,Cn1c(C(=O)N[C@H](CO)Cc2c[nH]c3ccccc23)cc(=O)n(C)c1=O,inactive: 1.03
15,O=S(=O)(O)c1cc(O)ccc1O,inactive: 0.943
16,C[C@@H]1CN([C@@H](C)CO)C(=O)c2cccc(NC(=O)c3nc4ccccc4s3)c2O[C@@H]1CN(C)Cc1ccc(Oc2ccccc2)cc1,inactive: 1.04
17,O=C(Nc1ccccc1)N1c2ccccc2CCc2ccccc21,inactive: 1.03
18,C[C@@H]1CN([C@H](C)CO)C(=O)c2cc(NC(=O)NC3CCCCC3)ccc2O[C@@H](C)CCCCO[C@@H]1CN(C)S(=O)(=O)c1ccc(F)cc1,inactive: 1.01
19,C[C@@H]1CN([C@@H](C)CO)C(=O)c2cc(NC(=O)CCN3CCOCC3)ccc2O[C@H]1CN(C)Cc1ccccc1,inactive: 0.995
20,C[C@@H]1CCCCO[C@@H](CN(C)C(=O)Nc2ccc3c(c2)OCO3)[C@H](C)CN([C@@H](C)CO)C(=O)c2cc(NC(=O)C3CCCCC3)ccc2O1,inactive: 1.03
21,CN(C)S(=O)(=O)c1ccc2c(c1)CCN2,inactive: 0.975

row,SMILES,relative growth
1,CC(C)CC#Cc1ccc2c(c1)O[C@H](CN(C)C(=O)c1ccccn1)[C@H](C)CN([C@H](C)CO)S2(=O)=O,inactive: 0.972
2,Cc1noc(C)c1S(=O)(=O)N(C)C[C@@H]1OCCCC[C@@H](C)Oc2ccc(NS(C)(=O)=O)cc2C(=O)N([C@@H](C)CO)C[C@@H]1C,inactive: 0.979
3,C[C@H]1CN([C@@H](C)CO)C(=O)c2cccc(NS(=O)(=O)c3ccc(F)cc3)c2O[C@H]1CN(C)Cc1ccc(Oc2ccccc2)cc1,inactive: 1.03
4,C[C@@H]1CCCCO[C@H](CN(C)Cc2ccncc2)[C@H](C)CN([C@@H](C)CO)C(=O)c2cc(NC(=O)NC3CCCCC3)ccc2O1,inactive: 1
5,C[C@@H]1CCCCO[C@@H](CN(C)C(=O)Nc2ccccc2)[C@H](C)CN([C@@H](C)CO)C(=O)c2cc(NC(=O)NC3CCCCC3)ccc2O1,inactive: 1.02
6,CCC(C)C(=O)OC1CCC=C2C=CC(C)C(CCC3CC(O)CC(=O)O3)C21 (stereo not drawn),inactive: 1.15
7,Cc1noc(C)c1S(=O)(=O)Nc1ccc2c(c1)C(=O)N([C@@H](C)CO)C[C@@H](C)[C@@H](CN(C)C(=O)Nc1ccccc1)OCCCC[C@@H](C)O2,inactive: 0.983
8,CCSc1nnc2c(=O)[nH]c(=O)[nH]c2n1,inactive: 1.01
9,COc1ccc(S(=O)(=O)Nc2ccc3c(c2)CC(=O)N([C@H](C)CO)C[C@H](C)[C@@H](CN(C)Cc2ccc(Oc4ccccc4)cc2)O3)cc1,inactive: 1.03
10,C[C@@H]1CN([C@H](C)CO)C(=O)c2cccc(NC(=O)C3CC3)c2O[C@H]1CN(C)S(=O)(=O)c1ccc(F)cc1,inactive: 0.995
11,O=C(NO)c1ccc(C(=O)N/N=C/[C@@H](O)[C@H](O)[C@H](O)CO)cc1,inactive: 1.01
12,C[C@H](CO)N1C[C@H](C)[C@@H](CN(C)Cc2ccc(Oc3ccccc3)cc2)Oc2c(NS(=O)(=O)c3cccs3)cccc2C1=O,inactive: 0.983
13,OCC(O)C(O)C(O)C(O)C(O)CO (stereo not drawn),inactive: 1.06
14,O=S(=O)(NCC[C@H]1CC[C@H](NS(=O)(=O)c2ccccc2Cl)[C@@H](CO)O1)c1ccc(Cl)cc1,inactive: 1.02
15,O=C(CS(=O)(=O)c1cccc2nsnc12)N1CC(=O)N(CCc2ccccc2)C(=O)C1,inactive: 1
16,C[C@@H]1CCCCO[C@H](CN(C)C(=O)Nc2ccccc2)[C@@H](C)CN([C@H](C)CO)C(=O)c2cc(NS(=O)(=O)c3ccccc3)ccc2O1,inactive: 1.04
17,C=C(C(=O)O)[C@@H](CCCCCCOC(=O)C(=O)OCCCCCC[C@@H](C(=C)C(=O)O)C(=O)O)C(=O)O,inactive: 1.02
18,C[C@H]1CCCCO[C@H](CN(C)C(=O)Nc2cccc3ccccc23)[C@@H](C)CN([C@@H](C)CO)C(=O)c2cc(N(C)C)ccc2O1,inactive: 0.996
19,N#C[C@@H]1N[C@H](CO)[C@H]1c1ccccc1,inactive: 0.964
20,C[C@@H]1CN([C@H](C)CO)C(=O)c2cc(NC(=O)CCCN(C)C)ccc2O[C@@H]1CN(C)C(=O)Nc1ccc2c(c1)OCO2,inactive: 0.993
21,CCCCCCOC(=O)N=C(N)c1ccc(NCc2nc3cc(C(=O)N(CCC(=O)OCC)c4ccccn4)ccc3n2C)cc1.CS(=O)(=O)O,inactive: 1.09
